Test results reported in the CheMixHub viscosity set.
Further values from the same series stand in other lists.

Assay: xn = mol fraction of the nth substance listed

CC(C)C[C@H](N)C(=O)O + O
viscosity [mPa·s], 100 kPa
Details	x1 = 0.000274	x1 = 0.000632	x1 = 0.000806	x1 = 0.000995	x1 = 0.00117	x1 = 0.00136	x1 = 0.00153	x1 = 0.00172
313.15 K	–	–	–	0.678	0.681	0.684	0.688	0.691
318.15 K	0.605	0.612	0.616	0.619	0.622	0.625	0.629	0.632

CNCCO + O
viscosity [mPa·s], 101 kPa
Details	318.15 K	323.15 K
x1 = 0.0844	–	1.428
x1 = 0.1894	–	3.056
x1 = 0.3001	–	4.842
x1 = 0.4014	–	5.965
x1 = 0.448	7.656	6.242
x1 = 0.5016	7.898	6.427
x1 = 0.5474	7.836	6.424
x1 = 0.6004	7.778	6.375
x1 = 0.7021	7.177	5.923
x1 = 0.7975	6.425	5.36
x1 = 0.9048	5.645	4.747

O=C1O[C@H]([C@@H](O)CO)C(O)=C1O + O
viscosity [mPa·s]
Details	293.15 K	298.15 K	303.15 K	308.15 K	313.15 K	318.15 K
100 kPa, x1 = 0.0001803	–	0.9002	0.8061	0.7269	0.6595	0.6016
100 kPa, x1 = 0.000376	1.008	0.898	0.804	0.725	0.66	0.607
100 kPa, x1 = 0.0005398	–	0.9089	0.8131	–	0.6642	0.606
100 kPa, x1 = 0.000729	1.013	0.903	0.809	0.73	0.665	0.612
100 kPa, x1 = 0.0008994	–	0.9167	0.8202	0.7387	0.6692	0.6107
100 kPa, x1 = 0.00109	1.017	0.908	0.814	0.735	0.67	0.617
100 kPa, x1 = 0.001258	–	0.9264	–	0.7467	–	0.617
100 kPa, x1 = 0.00146	1.023	0.914	0.819	0.74	0.674	0.621
100 kPa, x1 = 0.001797	–	0.9385	0.8386	0.7554	0.6851	–
100 kPa, x1 = 0.001827	1.028	0.919	0.825	0.745	0.679	0.626
100 kPa, x1 = 0.002191	1.035	0.924	0.831	0.75	0.684	0.632
100 kPa, x1 = 0.002694	–	0.9561	0.8555	0.7704	0.6979	0.6359
101 kPa, x1 = 0.00155	–	–	–	–	–	0.6163
101 kPa, x1 = 0.001856	–	–	–	–	–	0.621
101.3 kPa, x1 = 0.001875	–	0.951	0.827	0.778	0.676	–
101.3 kPa, x1 = 0.003776	1.078	0.978	0.857	0.805	0.698	–
101.3 kPa, x1 = 0.005404	1.124	–	0.889	0.832	0.723	–
